Experimental data from patent US11160803B2, “Phthalazinone derivatives” (KUDOS PHARMACEUTICALS LIMITED, priority 2003, dated 2021).

Each compound was assayed against Mammalian PARP, isolated from Hela cell nuclear extract (Homo sapiens, UniProt P09874) (assay: PARP inhibition assay (FlashPlate, 3H-NAD incorporation), IC50). Settings: not given.
Assay type: biochemical
Protocol: In order to assess the inhibitory action of the compounds, the following assay was used to determine IC50 values (Dillon, et al., JBS., 8(3), 347-352 (2003)).
The total assay volume per well was 40 μl.
After 10 minutes incubation at 30° C. the reactions were initiated by the addition of a 10 μl reaction mixture, containing NAD (5 μM), ^3H-NAD and 30 mer double stranded DNA-oligos. Designated positive and negative reaction wells were done in combination with compound wells (unknowns) in order to calculate % enzyme activities. The plates were then shaken for 2 minutes and incubated at 30° C. for 45 minutes.
Following the incubation, the reactions were quenched by the addition of 50 μl 30% acetic acid to each well. The plates were then shaken for 1 hour at room temperature.
The plates were transferred to a TopCount NXT (TRADE MARK) (Packard, UK) for scintillation counting. Values recorded are counts per minute (cpm) following a 30 second counting of each well.
The % enzyme activity for each compound is then calculated using the following equation: […]
Such IC50 values are used as comparative values to identify increased compound potencies.

Q: `CCCN1CCCN(C(=O)c2cc(Cc3nnc(O)c4ccccc34)ccc2F)CC1` [compound 246] was tested. Which IC50 did it give?
A: < 10 nM

Q: `O=C(c1cc(Cc2n[nH]c(=O)c3ccccc23)ccc1F)N1CCCN(CC2CC2)CC1` [compound 247] was tested. Which IC50 did it give?
A: < 10 nM

Same assay, conditions: PARP from Hela cell nuclear extract, NAD 5 μM, 30° C.

Q: Which IC50 does the source give for `CCCCCC(C)C(=O)N1CCN(C(=O)c2cccc(Cc3n[nH]c(=O)c4ccccc34)c2)CC1` (stereo not shown) [compound 97] here?
A: < 10 nM

Q: For `O=C(Cc1ccc(Cl)cc1)N1CCN(C(=O)c2cccc(Cc3n[nH]c(=O)c4ccccc34)c2)CC1` [compound 101], which IC50 is on record?
A: < 10 nM

Q: `O=C(Cc1ccc2c(c1)OCO2)N1CCN(C(=O)c2cccc(Cc3n[nH]c(=O)c4ccccc34)c2)CC1` [compound 102] was tested. Which IC50 did it give?
A: < 10 nM

Q: With `Cc1nn(C)c(Cl)c1C(=O)N1CCN(C(=O)c2cccc(Cc3n[nH]c(=O)c4ccccc34)c2)CC1` [compound 123] as the compound, how does the IC50 read?
A: < 10 nM

Q: For `O=C(c1cccc(Cc2n[nH]c(=O)c3ccccc23)c1)N1CCN(C(=O)c2ccccc2Cl)CC1` [compound 143], which IC50 is on record?
A: < 10 nM

Q: For `O=C(c1cccc(Cc2n[nH]c(=O)c3ccccc23)c1)N1CCN(C(=O)c2ccc(Cl)c(Cl)c2)CC1` [compound 144], which IC50 is on record?
A: < 10 nM

Q: `O=C(NCc1ccccc1Cl)N1CCN(C(=O)c2cccc(Cc3n[nH]c(=O)c4ccccc34)c2)CC1` [compound 164] was tested. Which IC50 did it give?
A: < 10 nM

Q: For `O=C(NCc1ccc(Cl)cc1Cl)N1CCN(C(=O)c2cccc(Cc3n[nH]c(=O)c4ccccc34)c2)CC1` [compound 168], which IC50 is on record?
A: < 10 nM

Q: For `O=C(NCc1ccc(Cl)c(Cl)c1)N1CCN(C(=O)c2cccc(Cc3n[nH]c(=O)c4ccccc34)c2)CC1` [compound 172], which IC50 is on record?
A: < 10 nM

Q: With `CCCCOC(=O)c1ccc(NC(=O)N2CCN(C(=O)c3cccc(Cc4n[nH]c(=O)c5ccccc45)c3)CC2)cc1` [compound 177] as the compound, how does the IC50 read?
A: < 10 nM

Q: `O=C(NC1CCN(C(=O)OCc2ccccc2)CC1)N1CCN(C(=O)c2cccc(Cc3n[nH]c(=O)c4ccccc34)c2)CC1` [compound 178] was tested. Which IC50 did it give?
A: < 10 nM

Q: For `O=C(c1cccc(Cc2n[nH]c(=O)c3ccccc23)c1)N1CCN(C(=S)NCCc2ccccc2)CC1` [compound 180], which IC50 is on record?
A: < 10 nM

Q: With `CN(C)c1ccc(NC(=S)N2CCN(C(=O)c3cccc(Cc4n[nH]c(=O)c5ccccc45)c3)CC2)cc1` [compound 187] as the compound, how does the IC50 read?
A: < 10 nM

Q: With `O=C(c1cccc(Cc2n[nH]c(=O)c3ccccc23)c1)N1CCCN(CCO)CC1` [compound 221] as the compound, how does the IC50 read?
A: < 10 nM

Q: How did the IC50 turn out when `O=C(c1cc(Cc2n[nH]c(=O)c3ccccc23)ccc1F)N1CCN(c2ccccc2F)CC1` [compound 222] was run?
A: < 10 nM

Q: How did the IC50 turn out when `O=C(c1cc(Cc2n[nH]c(=O)c3ccccc23)ccc1F)N1CCN(c2cccc(C(F)(F)F)c2)CC1` [compound 223] was run?
A: < 10 nM

Q: For `O=C(c1cc(Cc2n[nH]c(=O)c3ccccc23)ccc1F)N1CCN(c2ncccn2)CC1` [compound 225], which IC50 is on record?
A: < 10 nM

Q: For `O=C(c1cc(Cc2n[nH]c(=O)c3ccccc23)ccc1F)N1CCN(c2cccc(Cl)c2)CC1` [compound 234], which IC50 is on record?
A: < 10 nM

Q: Which IC50 does the source give for `O=C(c1cc(Cc2n[nH]c(=O)c3ccccc23)ccc1F)N1CCN(c2ccc(F)cc2)CC1` [compound 236] here?
A: < 10 nM

Q: `O=C(CN1CCN(C(=O)c2cc(Cc3n[nH]c(=O)c4ccccc34)ccc2F)CC1)N1CCOCC1` [compound 239] was tested. Which IC50 did it give?
A: < 10 nM

Q: Which IC50 does the source give for `O=C(c1cc(Cc2n[nH]c(=O)c3ccccc23)ccc1F)N1CCN(c2cccnc2)CC1` [compound 240] here?
A: < 10 nM

Q: `CCCCN1CCN(C(=O)c2cc(Cc3n[nH]c(=O)c4ccccc34)ccc2F)CC1` [compound 251] was tested. Which IC50 did it give?
A: < 10 nM

Q: For `CCC(C)CN1CCN(C(=O)c2cc(Cc3n[nH]c(=O)c4ccccc34)ccc2F)CC1` (stereo not shown) [compound 252], which IC50 is on record?
A: < 10 nM

Q: `CCN1CCN(C(=O)c2cc(Cc3n[nH]c(=O)c4ccccc34)ccc2F)CC1` [compound 253] was tested. Which IC50 did it give?
A: < 10 nM

Q: How did the IC50 turn out when `CCC(CC)CN1CCN(C(=O)c2cc(Cc3n[nH]c(=O)c4ccccc34)ccc2F)CC1` [compound 254] was run?
A: < 10 nM

Q: Which IC50 does the source give for `CCCCCN1CCN(C(=O)c2cc(Cc3n[nH]c(=O)c4ccccc34)ccc2F)CC1` [compound 255] here?
A: < 10 nM

Q: For `CCCN1CCN(C(=O)c2cc(Cc3n[nH]c(=O)c4ccccc34)ccc2F)CC1` [compound 256], which IC50 is on record?
A: < 10 nM

Q: Which IC50 does the source give for `CC(C)(C)CN1CCN(C(=O)c2cc(Cc3n[nH]c(=O)c4ccccc34)ccc2F)CC1` [compound 258] here?
A: < 10 nM

Q: Which IC50 does the source give for `O=C(c1cc(Cc2n[nH]c(=O)c3ccccc23)ccc1F)N1CCN(CC2CCCCC2)CC1` [compound 259] here?
A: < 10 nM

Q: Which IC50 does the source give for `CC(C)CCN1CCN(C(=O)c2cc(Cc3n[nH]c(=O)c4ccccc34)ccc2F)CC1` [compound 260] here?
A: < 10 nM

Q: For `O=C(c1cc(Cc2n[nH]c(=O)c3ccccc23)ccc1F)N1CCN(Cc2ccncc2)CC1` [compound 261], which IC50 is on record?
A: < 10 nM

Q: Which IC50 does the source give for `O=C(c1cc(Cc2n[nH]c(=O)c3ccccc23)ccc1F)N1CCN(Cc2nccs2)CC1` [compound 262] here?
A: < 10 nM

Q: For `CC(C)N1CCN(C(=O)c2cc(Cc3n[nH]c(=O)c4ccccc34)ccc2F)CC1` [compound 263], which IC50 is on record?
A: < 10 nM

Q: With `CC(=O)N1CCN(C(=O)c2cc(Cc3n[nH]c(=O)c4ccccc34)ccc2F)CC1` [compound 264] as the compound, how does the IC50 read?
A: < 10 nM

Q: How did the IC50 turn out when `O=C(c1ccno1)N1CCN(C(=O)c2cc(Cc3n[nH]c(=O)c4ccccc34)ccc2F)CC1` [compound 265] was run?
A: < 10 nM

Q: Which IC50 does the source give for `CCC(=O)N1CCN(C(=O)c2cc(Cc3n[nH]c(=O)c4ccccc34)ccc2F)CC1` [compound 266] here?
A: < 10 nM

Q: With `CN1CCC(C(=O)N2CCN(C(=O)c3cc(Cc4n[nH]c(=O)c5ccccc45)ccc3F)CC2)CC1` [compound 269] as the compound, how does the IC50 read?
A: < 10 nM

Q: With `CN1CCN(CCC(=O)N2CCN(C(=O)c3cc(Cc4n[nH]c(=O)c5ccccc45)ccc3F)CC2)CC1` [compound 270] as the compound, how does the IC50 read?
A: < 10 nM

Q: `O=C(CCN1CCOCC1)N1CCN(C(=O)c2cc(Cc3n[nH]c(=O)c4ccccc34)ccc2F)CC1` [compound 271] was tested. Which IC50 did it give?
A: < 10 nM

Q: Which IC50 does the source give for `O=C(c1cc(Cc2n[nH]c(=O)c3ccccc23)ccc1F)N1CCN(C(=O)C2CCNCC2)CC1` [compound 272] here?
A: < 10 nM

Q: With `O=C(CCN1CCCNCC1)N1CCN(C(=O)c2cc(Cc3n[nH]c(=O)c4ccccc34)ccc2F)CC1` [compound 273] as the compound, how does the IC50 read?
A: < 10 nM

Q: Which IC50 does the source give for `CCCCN1CCCN(C(=O)c2cccc(Cc3n[nH]c(=O)c4ccccc34)c2)CC1` [compound 274] here?
A: < 10 nM

Q: For `O=C(c1cccc(Cc2n[nH]c(=O)c3ccccc23)c1)N1CCCN(CC2CC2)CC1` [compound 279], which IC50 is on record?
A: < 10 nM

Q: `O=C(c1cccc(Cc2n[nH]c(=O)c3ccccc23)c1)N1CCCN(Cc2coc3c(Cl)cc(Cl)cc3c2=O)CC1` [compound 287] was tested. Which IC50 did it give?
A: < 10 nM

Q: How did the IC50 turn out when `O=C(c1cccc(Cc2n[nH]c(=O)c3ccccc23)c1)N1CCCN(Cc2c[nH]c(=O)[nH]c2=O)CC1` [compound 288] was run?
A: < 10 nM

Q: Which IC50 does the source give for `O=C(c1cccc(Cc2n[nH]c(=O)c3ccccc23)c1)N1CCCN(Cc2cc3ccccc3o2)CC1` [compound 292] here?
A: < 10 nM

Q: `CC(C)CN1CCCN(C(=O)c2cccc(Cc3n[nH]c(=O)c4ccccc34)c2)CC1` [compound 293] was tested. Which IC50 did it give?
A: < 10 nM

Q: With `Cn1cc(CN2CCCN(C(=O)c3cccc(Cc4n[nH]c(=O)c5ccccc45)c3)CC2)c2ccccc21` [compound 302] as the compound, how does the IC50 read?
A: < 10 nM

Q: For `COc1ccc2[nH]cc(CN3CCCN(C(=O)c4cccc(Cc5n[nH]c(=O)c6ccccc56)c4)CC3)c2c1` [compound 303], which IC50 is on record?
A: < 10 nM

Q: How did the IC50 turn out when `O=C(c1cccc(Cc2n[nH]c(=O)c3ccccc23)c1)N1CCCN(Cc2c[nH]c3ccccc23)CC1` [compound 306] was run?
A: < 10 nM

Q: `O=C(c1cccc(Cc2n[nH]c(=O)c3ccccc23)c1)N1CCCN(C(=O)c2ccno2)CC1` [compound 319] was tested. Which IC50 did it give?
A: < 10 nM

Q: Which IC50 does the source give for `COc1ccc(CCC(=O)N2CCCN(C(=O)c3cccc(Cc4n[nH]c(=O)c5ccccc45)c3)CC2)cc1` [compound 321] here?
A: < 10 nM

Q: `O=C(CCc1ccccc1)N1CCCN(C(=O)c2cccc(Cc3n[nH]c(=O)c4ccccc34)c2)CC1` [compound 322] was tested. Which IC50 did it give?
A: < 10 nM

Q: Which IC50 does the source give for `CSc1ccc(C(=O)N2CCCN(C(=O)c3cccc(Cc4n[nH]c(=O)c5ccccc45)c3)CC2)cc1` [compound 323] here?
A: < 10 nM

Q: How did the IC50 turn out when `CC/C=C(\C)C(=O)N1CCCN(C(=O)c2cccc(Cc3n[nH]c(=O)c4ccccc34)c2)CC1` [compound 325] was run?
A: < 10 nM

Q: With `O=C(Cc1ccc(C(F)(F)F)cc1)N1CCCN(C(=O)c2cccc(Cc3n[nH]c(=O)c4ccccc34)c2)CC1` [compound 327] as the compound, how does the IC50 read?
A: < 10 nM

Q: With `O=C(Cc1ccc(-c2ccccc2)cc1)N1CCCN(C(=O)c2cccc(Cc3n[nH]c(=O)c4ccccc34)c2)CC1` [compound 328] as the compound, how does the IC50 read?
A: < 10 nM

Q: How did the IC50 turn out when `O=C(Nc1ccc(C(F)(F)F)cc1)N1CCCN(C(=O)c2cccc(Cc3n[nH]c(=O)c4ccccc34)c2)CC1` [compound 330] was run?
A: < 10 nM

Q: How did the IC50 turn out when `Cc1cc(C)cc(NC(=O)N2CCCN(C(=O)c3cccc(Cc4n[nH]c(=O)c5ccccc45)c3)CC2)c1` [compound 331] was run?
A: < 10 nM

Q: `CCOc1ccc(NC(=O)N2CCCN(C(=O)c3cccc(Cc4n[nH]c(=O)c5ccccc45)c3)CC2)cc1` [compound 332] was tested. Which IC50 did it give?
A: < 10 nM

Q: With `CCCCOC(=O)c1ccc(NC(=O)N2CCCN(C(=O)c3cccc(Cc4n[nH]c(=O)c5ccccc45)c3)CC2)cc1` [compound 333] as the compound, how does the IC50 read?
A: < 10 nM

Q: For `Cc1cccc(NC(=S)N2CCCN(C(=O)c3cccc(Cc4n[nH]c(=O)c5ccccc45)c3)CC2)c1` [compound 334], which IC50 is on record?
A: < 10 nM

Q: For `O=C(c1cccc(Cc2n[nH]c(=O)c3ccccc23)c1)N1CCCN(C(=S)Nc2cccc(F)c2)CC1` [compound 335], which IC50 is on record?
A: < 10 nM

Q: Which IC50 does the source give for `COC(=O)c1ccc(NC(=S)N2CCCN(C(=O)c3cccc(Cc4n[nH]c(=O)c5ccccc45)c3)CC2)cc1` [compound 336] here?
A: < 10 nM

Q: `CC(=O)c1cccc(NC(=S)N2CCCN(C(=O)c3cccc(Cc4n[nH]c(=O)c5ccccc45)c3)CC2)c1` [compound 339] was tested. Which IC50 did it give?
A: < 10 nM
